Among the data in a compilation of properties of binary mixtures (doi:10.1007/s10953-010-9507-z) are mass density values, retold here.

The nature of the data set: xn = mol fraction of the nth substance listed. Conditions: 298.15 K, 101 kPa.

Structures are written as SMILES. The densities may have been worked out from excess volumes.

In general, mass density refers to the mass of a sample divided by its volume.

Turning to `CCCC[n+]1ccn(C)c1.O=S(=O)([N-]S(=O)(=O)C(F)(F)F)C(F)(F)F` + CCO, the mass density by setting is: (x2 = 0.0793) 1425.6 kg/m3; (x2 = 0.1393) 1416.2 kg/m3; (x2 = 0.2058) 1404.6 kg/m3; (x2 = 0.2578) 1394.5 kg/m3; (x2 = 0.345) 1374.8 kg/m3; (x2 = 0.384) 1364.9 kg/m3. The mass density runs as follows: (x2 = 0.4122) 1357.2 kg/m3; (x2 = 0.5622) 1304.8 kg/m3; (x2 = 0.688) 1239.3 kg/m3; (x2 = 0.7967) 1153.3 kg/m3; (x2 = 0.8984) 1023.9 kg/m3.
Consider `CCOC(C)=O` + CCCC[n+]1ccn(C)c1.O=S(=O)([N-]S(=O)(=O)C(F)(F)F)C(F)(F)F, for which the mass density was 1427 kg/m3 (x1 = 0.0522); 1401.1 kg/m3 (x1 = 0.1818); 1372.5 kg/m3 (x1 = 0.2982); 1335.8 kg/m3 (x1 = 0.4204); 1316.1 kg/m3 (x1 = 0.4752); 1265.7 kg/m3 (x1 = 0.5937). For the same molecule, the mass density worked out at 1210 kg/m3 (x1 = 0.6953), 1138.6 kg/m3 (x1 = 0.7954) and 1043.8 kg/m3 (x1 = 0.8933).
